Consider one molecule from patent US20160106837A1, “COMBINATION OF CD37 ANTIBODIES WITH CHLORAMBUCIL” (BOEHRINGER INGELHEIM INTERNATIONAL GMBH, priority 2013, published 2016).

“Also recorded” adds a separate entry of the source. Read-outs that look alike come from different tables or passages of the source.

For series [1], the target named is T1, CD37 (Homo sapiens, UniProt P11049).
T1 sequence (P11049 1-281): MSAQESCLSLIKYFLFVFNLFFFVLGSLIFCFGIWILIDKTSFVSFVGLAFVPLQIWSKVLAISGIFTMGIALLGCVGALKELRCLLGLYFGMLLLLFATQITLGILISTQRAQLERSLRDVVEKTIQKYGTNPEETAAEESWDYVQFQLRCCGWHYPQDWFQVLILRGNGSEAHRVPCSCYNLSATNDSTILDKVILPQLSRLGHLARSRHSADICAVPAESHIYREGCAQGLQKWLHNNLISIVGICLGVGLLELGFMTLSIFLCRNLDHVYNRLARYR
To be noted: from WO2009/019312 or EP 2 132 228 B1; cited from earlier work.

For series [2] the following is noted: mouse, in vivo.
The next series has as its target T2, mouse CD37 (Mus musculus, UniProt Q61470).
T2 sequence (Q61470 1-281): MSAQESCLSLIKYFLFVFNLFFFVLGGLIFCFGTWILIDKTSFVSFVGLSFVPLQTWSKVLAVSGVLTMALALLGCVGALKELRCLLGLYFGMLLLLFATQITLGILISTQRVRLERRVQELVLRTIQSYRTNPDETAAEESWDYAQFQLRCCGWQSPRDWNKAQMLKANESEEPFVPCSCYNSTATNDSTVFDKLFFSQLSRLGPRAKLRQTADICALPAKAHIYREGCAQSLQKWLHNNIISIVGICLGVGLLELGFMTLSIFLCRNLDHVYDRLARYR
In words: Cross-reactivity with mouse CD37. It counts as binding.

Series [3] relates to human follicular lymphoma DOHH2. In words: Subcutaneous xenograft model of the human follicular lymphoma DOHH2 in C.B-17 scid mice: tumor growth. It counts as in vivo. A general note: In xenograft studies the graft and the host belong to different species.
The target of series [4] is T1, CD37. Briefly: Binding to human CD37.
The target in series [5] is T1, CD37. In words: In vitro apoptosis induction / cytotoxicity with or without IgG cross-linking. Format: cell-based.

In general, TGI refers to how far tumour growth fell short of that in controls. The low end stands for a weaker effect on the tumour, the high end for a stronger effect on the tumour.

B1: antibody A2: mouse-human chimeric Fc-engineered IgG1 antibody to human CD37; heavy chain SEQ ID NO: 5, light chain SEQ ID NO: 6 (antibody)
heavy: AVQLQQSGPELEKPGASVKISCKASGYSFTGYNMNWVKQNNGKSLEWIGNIDPYYGGTTYNRKFKGKATLTVDKSSSTAYMQLKSLTSEDSAVYYCARSVGPMDYWGQGTSVTVSSASTKGPSVFPLAPSSKSTSGGTAALGCLVKDYFPEPVTVSWNSGALTSGVHTFPAVLQSSGLYSLSSVVTVPSSSLGTQTYICNVNHKPSNTKVDKRV[letters of human IgG1 Fc with changes not shown]
light: DIQMTQSPASLSASVGETVTITCRTSENVYSYLAWYQQKQGKSPQLLVSFAKTLAEGVPSRFSGSGSGTQFSLKISSLQPEDSGSYFCQHHSDNPWTFGGGTELEIKRTVAAPSVFIFPPSDEQLKSGTASVVCLLNNFYPREAKVQWKVDNALQSGNSQESVTEQDSKDSTYSLSSTLTLSKADYEKHKVYACEVTHQGLSSPVTKSFNRGEC
modifications: /mol_type=“protein” /note=“Synthetic construct heavy chain A2” /organism=“Artificial Sequence”; /mol_type=“protein” /note=“Synthetic construct light chain A2” /organism=“Artificial Sequence”
For B1, the “apoptosis induction, dependence on IgG cross-linking” value with CD37 [1] was “potent inducer of apoptosis both in the absence and presence of an IgG cross-linking antibody”. Also, in series [2], the “tolerability / body weight course (in words)” value is recorded as “well tolerated”. In the series with mouse CD37, the “binding to mouse CD37 (in words)” value was “does not bind to mouse CD37; also recorded: does not cross-react with mouse CD37”. The “binding to mouse CD37 (in words)” value in the series with mouse CD37 (listed as Antibody A2) is on record as “does not cross-react with mouse CD37”. Moreover, in series [3] (day 16), the “CR (complete tumor regression)” value was 0 x/7, the “PR (partial tumor regression)” value was determined as 0 x/7 and the “tumor regression (in words)” value was “Tumor regressions were not observed”. In addition, the TGI in series [3] (median, day 16, A2 10 mg/kg i.p. d1,5,8,12,15, chlorambucil 6 mg/kg i.p. d2,6) is reported as 73%. Further, the “tumor growth inhibition (in words)” value in series [3] (vs controls) is given as “significantly inhibited growth”. For the same molecule, the “binding to human CD37 (in words)” value with CD37 [4] is “specific for human CD37; also recorded: binds specifically to human CD37”. Moreover, the “binding to human CD37 (in words)” value with CD37 [4] (listed as Antibody A2) was “high affinity”. Moreover, in the series with CD37 [5], the “in vitro cytotoxicity (apoptosis induction, ADCC, tumor cell depletion in whole blood assays)” value was “potent”. Further, the “pro-apoptotic activity without IgG cross-linking, single agent and with chlorambucil” value with CD37 [5] (absence of IgG cross-linking antibody) is on record as “exerts its pro-apoptotic activity without the need of an IgG cross-linking antibody”.
